Laboratory results: PubChem BioAssay AID624417 (National Center for Advancing Translational Sciences (NCATS), 2012)
Screen size: about 410,000 compounds; about 6,400 (1.6%) were called active. Inconclusive results, whose numbers are uncertain, are shown with a selection of clear calls. The call rests on the fitted dose curve; in most records, active means well fitted inhibition curve with a large enough effect; inconclusive means small, poorly fitted or top-dose-only effect; inactive means no such curve, though single readings can be large or run the other way. Potencies of inconclusive entries are left out as doubtful fits.

Molecular target: Glucagon-like peptide 1 receptor (Homo sapiens) (UniProt P43220)
Chain of UniProt P43220 (P43220 whole entry, looked up): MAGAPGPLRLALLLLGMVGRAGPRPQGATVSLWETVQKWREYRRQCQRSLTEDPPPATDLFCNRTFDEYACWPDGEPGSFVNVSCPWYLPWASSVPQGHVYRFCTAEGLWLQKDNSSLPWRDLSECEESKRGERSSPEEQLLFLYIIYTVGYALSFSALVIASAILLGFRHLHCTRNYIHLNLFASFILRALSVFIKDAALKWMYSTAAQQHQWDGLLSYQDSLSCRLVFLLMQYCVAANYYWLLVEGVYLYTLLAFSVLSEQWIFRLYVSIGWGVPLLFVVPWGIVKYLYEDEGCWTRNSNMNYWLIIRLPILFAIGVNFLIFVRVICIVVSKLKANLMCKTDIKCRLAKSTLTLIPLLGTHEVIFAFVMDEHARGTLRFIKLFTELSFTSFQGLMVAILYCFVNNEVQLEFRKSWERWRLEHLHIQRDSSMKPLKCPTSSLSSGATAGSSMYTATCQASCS
Test: qHTS of GLP-1 Receptor Inverse Agonists (Inhibition Mode); further: nearly all actives have a fitted effect of over 55% in size
Conditions: HEK293 GLP-1R CRE-luciferase, luminescence, 24 h, GLP-1R form is constitutively active; series mostly up to 38.3 µM
How it was run: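 qHTS in 1536-well format: reporter HEK293 cells expressing constitutive GLP-1R activity in DMEM + 10% Nu serum, 24 hr with compounds at 37 deg C, luminescence read after 12 min with detection reagent.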
Potency means the concentration at half of the fitted maximal effect; tags describe the fitted curve by direction and shape.

Compound	Potency
O=C(NCCc1c[nH]c2ccccc12)C1CCC(Cn2c(=S)[nH]c3ccccc3c2=O)CC1 (stereo not drawn)	inconclusive [inhibitor, full curve, poor fit]
COc1ccccc1NC(=O)CN(c1ccc(C)cc1)S(=O)(=O)c1c(C)n[nH]c1C	inconclusive [inhibitor, partial curve, poor fit]
COC(=O)[C@@]1(Cc2ccc(OC)cc2)[C@H]2c3cc(C(=O)N4CCCC4)n(Cc4ccc(OC(F)(F)F)cc4)c3C[C@H]2CN1C(=O)c1ccccc1	inconclusive [inhibitor, partial curve]
CCOc1ccccc1N(C)C(=O)c1c2c(nc3ccccc13)C(=O)N(C1CCCCC1)C2	inconclusive [inhibitor, single point]
CCOC(=O)c1cc2sccc2n1CC(=O)N1CCc2ccccc21	inactive
CCC(CC)C(=O)N(C)c1c(C)nc2c(OCC3CCCCC3)cccn12	inconclusive [inhibitor, partial curve, poor fit]
CC(C)Cc1ccc(C(C)C(=O)Nc2ccc(O)cc2)cc1 (stereo not drawn)	inconclusive [inhibitor, single point]
CSc1oc(-c2cccs2)nc1S(=O)(=O)c1ccc(Br)cc1	inconclusive [inhibitor, single point]
COc1ccc(C(CNC(=O)CNC(=O)c2cccc(Cl)c2)N2CCCC2)cc1 (stereo not drawn)	inconclusive [inhibitor, partial curve, poor fit]
CCC1CN(C(=O)N2CCC(C(=O)N3CCN(c4ccccc4F)CC3)CC2)c2ccccc2O1 (stereo not drawn)	inconclusive [inhibitor, single point]
CCc1ccc(C(=O)NNc2ccccc2F)cc1	inconclusive [inhibitor, full curve, poor fit]
Cc1nn(Cc2ccc(F)cc2)c(C)c1NC(=O)c1cnn2c1NC(c1ccccc1)CC2C(F)(F)F (stereo not drawn)	inconclusive [inhibitor, full curve, poor fit]
COc1ccc(NC(=O)Nc2ccc3nsnc3c2)cc1	inconclusive [inhibitor, single point]
Oc1ccc(Cl)cc1CNc1cnc2ccccc2c1	active: 10 µM
CC1CCN(CCCCOc2ccc(Br)cc2)CC1	inactive
COc1ccc2c(c1)c(CC(=O)OCC(=O)O)c(C)n2C(=O)c1ccc(Cl)cc1	inactive
CC(=O)Nc1ccc(NC(=O)c2nc(S(=O)(=O)Cc3ccccc3)ncc2Cl)cc1	inconclusive [inhibitor, single point]
O=C1NC[C@@H](CCCCN2C[C@H](Cc3ccccc3)N(Cc3ccccc3)C(=O)C2=O)N(CC2CCCCC2)C1=O	inactive
N=c1c(S(=O)(=O)c2ccc(Br)cc2)cc2c(=O)n3ccccc3nc2n1C1CCCCC1	inactive
CCOc1c(Cl)cc(C(=O)N(Cc2ccc(N(C)C)cc2)Cc2ccco2)cc1Cl	inactive
Cc1ccc(C(=O)N/C(=C\c2ccc(-c3cccc([N+](=O)[O-])c3)o2)C(=O)NCCCN2CCOCC2)cc1	inconclusive [inhibitor, partial curve, poor fit]

Compound	Potency
O=c1c2c(-c3cccs3)csc2ncn1-c1ccc(Br)cc1	inconclusive [inhibitor, partial curve, poor fit]
Cc1nn(Cc2ccc(Cl)cc2)c(C)c1NC(=O)c1cc(-c2ccc3c(c2)OCO3)on1	inconclusive [inhibitor, partial curve, poor fit]
CCc1cccc(C)c1Nc1c(-c2ccsc2)nc2ncccn12	inconclusive [inhibitor, partial curve, poor fit]
Cc1ccc2c(c1)c1c3n2CCN(C(=O)c2cccc(C(F)(F)F)c2)C3CCC1 (stereo not drawn)	inconclusive [inhibitor, single point]
CC(=O)c1ccc(S(=O)(=O)N2Cc3ccccc3CC2C(=O)O)cc1 (stereo not drawn)	inactive
CCc1nnc(NC(=O)c2cc(-c3ccccn3)nc3ccc(Br)cc23)s1	inactive
Cc1c(C)n(CCc2ccccc2)c2ncnc(NCCCO)c12	inconclusive [inhibitor, partial curve, poor fit]
Cc1c(C(=O)O/N=C(\N)c2ccccn2)cccc1[N+](=O)[O-]	inconclusive [inhibitor, single point]
Cc1ccc(OCC(O)CN2CCc3ccccc3C2)c(C)c1 (stereo not drawn)	inconclusive [inhibitor, partial curve, poor fit]
CCNC(=O)O/N=C1\CCCCC1c1ccc([N+](=O)[O-])cc1[N+](=O)[O-] (stereo not drawn)	inactive
CC(=O)Oc1c(C)cc(Cl)cc1C(=O)Nc1ccc([N+](=O)[O-])cc1Cl	inactive
Cc1cc2c(c(=O)n1Cc1ccco1)C(c1cccnc1)C(C#N)=C(N)O2 (stereo not drawn)	inactive
Cc1ccsc1C(=O)Nc1nc2ccccc2[nH]1	inconclusive [inhibitor, partial curve, poor fit]
Cc1cccc(NC(=O)c2sc3nc(-c4cc5ccc(O)cc5oc4=O)[nH]c(=O)c3c2C)c1	inactive
C#CCOCCOCCOCCNc1nc(N2CCN(C(=O)CCCCCCCCCCNC(=O)[C@H](CCCCN)n3cc(CCCC(=O)O)nn3)CC2)nc(N2CCN(C(=O)CCCCCCCCCCNC(=O)[C@@H]([C@H](C)O)n3cc(C)nn3)CC2)n1	inactive
COc1ccc(-c2csc(NC(C)c3nc4cc(Cl)c(N5CCCCC5)cc4n3CCCO)n2)cc1 (stereo not drawn)	inconclusive [inhibitor, single point]
COc1ccccc1C1CCN(C(=O)c2cnn(-c3ccccc3)c2C)CC1	inconclusive [inhibitor, partial curve, poor fit]
CC1(C)Cc2c(sc(NC(=O)c3ccc(C(=O)c4ccccc4)cc3)c2C#N)C(C)(C)N1	inconclusive [inhibitor, full curve, poor fit]
COc1ccc(-c2noc(C)c2-c2ccc3ccccc3n2)c(O)c1	inconclusive [inhibitor, partial curve]
O=C(Nc1nc(-c2ccccc2)cs1)c1cccs1	inconclusive [inhibitor, single point]
CCOC(=O)n1c(=O)n(Cc2ccc(F)cc2)c2ccccc21	inconclusive [inhibitor, single point]

Compound	Potency
O=C(Nc1ccccn1)c1ccc(Cl)c(S(=O)(=O)N2CCCCCC2)c1	inconclusive [inhibitor, single point]
Cc1nnc(N/N=C/c2cc(C)n(-c3ccc(F)cc3)c2C)n1N	inconclusive [inhibitor, single point]
CCn1cc([N+](=O)[O-])c(C(=O)N2N=C(c3ccc4ccccc4c3)CC2c2ccccc2O)n1 (stereo not drawn)	inconclusive [inhibitor, single point]
Cc1ccc2nc(Nc3nc(C)cc(-c4ccccc4)n3)[nH]c(=O)c2c1	inactive
c1ccc2c(Nc3nc(N4CCOCC4)c4ccccc4n3)cccc2c1	inconclusive [inhibitor, partial curve, poor fit]
Cc1cccc(CC(=O)N2CCN=C2SCc2ccc([N+](=O)[O-])cc2)c1	inconclusive [inhibitor, single point]
CCN(CC(=O)NC1CCS(=O)(=O)C1)S(=O)(=O)c1ccc(C)c(C)c1 (stereo not drawn)	inactive
Cc1nn(-c2cccc(C(F)(F)F)c2)c(=O)c2ccccc12	inconclusive [inhibitor, single point]
CCc1nc2ccc(C(=O)N(C)CCN(C)C)cn2c1N(C)Cc1cc2ccccc2s1	inconclusive [inhibitor, single point]
CC(C)c1ccc(S(=O)(=O)N2CCN(C(=O)c3cc(-c4ccccc4)n[nH]3)CC2)cc1	inactive
Cc1cc(C)n(-c2nc(SCCN(C)C)c3c4c(sc3n2)CCCC4)n1	inconclusive [inhibitor, single point]
COc1ccc(O)c(C(=O)c2coc(=N)c(C(=O)Nc3ccc(SC(F)F)cc3)c2)c1	inconclusive [inhibitor, single point]
COc1ccc(CCC(=O)NCc2cccc(C(F)(F)F)c2)cc1	inconclusive [inhibitor, single point]
COc1ccc2nc(NC(=O)C3CCCN(S(=O)(=O)c4cccc5nsnc45)C3)sc2c1 (stereo not drawn)	inconclusive [inhibitor, partial curve]
Cc1ccccc1CN(CC1CCC(C(=O)O)CC1)C(=S)Nc1ccccc1F (stereo not drawn)	inconclusive [inhibitor, single point]
CN(CC(=O)Nc1cccc(F)c1)C(=O)c1ccccc1OCCOc1ccccc1	inconclusive [inhibitor, partial curve, poor fit]
COCCCN1C(=O)c2oc3ccccc3c(=O)c2C12C(=O)N(C)c1ccccc12 (stereo not drawn)	inactive
CCN(Cc1ccccc1)C(=O)c1oc2ccc(C)cc2c1C	inconclusive [inhibitor, single point]
C=CCc1ccc(OCC(O)CN2CCN(Cc3ccc(Cl)cc3)CC2)c(OC)c1 (stereo not drawn)	inconclusive [inhibitor, partial curve, poor fit]
Cn1c(-c2ccccc2)cc2ccccc21	inactive
COc1nn(-c2ccccc2)c(=O)c(Cl)c1Cl	inconclusive [inhibitor, single point]
